Experimental data reported in the supplement of paper PMC12632987.
In all, about 2,300 sequences were measured (“median log2 fold change of GCK-ALFA target abundance (FLAG IP / Myc IP barcode read proportion)”: median about 0.095, lowest 2% from about -0.47 on). The list shows a part of the results.

B1: LC3A_141_363 (protein)
chain: EVKVKTITLTATTEEEAEQAAEEIGKNIEAFMKETGAEKVTVTTTITAKNAATGETTTTTDTDIVTKENLDLYIEGLRIDLLSAFDAGADEITVTVTIET
B2: LC3A_free_8_2464 (protein)
chain: ASQKLVDTIVAKLDELEKALVKKAKEEGKSRLDILELELEVGSAIAELISNVDASPEEILKTLKEDLKDIIKVAKEIGEEVAKLAKEKSKEILAEAEALI
B3: LC3A_free_8_2485 (protein)
chain: SLEETQKKMLEIIDKTEEEVEKKMKELGADELDINDILLLLGEVEIAVHELTPENIEETKKEITDAFDEAIKEAEEIDPEIAKIVTEAKEKVLKLLDEAK
B4: LC3A_3_1436 (protein)
chain: MEELLEEAKKVLEEIGASEEAKEAVLRLVKLALAAGEEELVEELIKVLKKAKNVPSEDILEAAERALRRVEEEGVPVEEALKELIEELRVLALEQEIEEL
B5: LC3A_free_46_2371 (protein)
chain: MKITIYLYKEGFTEEEAKKLAEELEKKIKEIAKKHGVKVKVKSEVVKNKDGSYLVKITVEIDAPTEELAQKVEQEIIDTVEEIAKKTGAAAIISVEKIEP
B6: LC3A_147_506 (protein)
chain: YLLTIEIDIIVKNAEEEVKEKVEEIKKKLEEKGFKVEVKIETEKLDEETTYIKITIKVEAKTKEEAEEARDLILDEWDKFEEKNKDKILGSLISYEIEEK
B7: LC3A_23_626 (protein)
chain: KVKLTVLIDTIGSEEEIEENIKKIKEKVKEIEKKYKDKVLEVKIEVEKEKDEDGKTIGTIKITIVFDDDEEAAKEAADELISFADENIPNGVVSYEIEKL
B8: LC3A_128_233 (protein)
chain: SEKREEIIKLLEEARKLAEELPQSPEAKEIKEKLIKELDAAIKLLKEGGDLEEVQKELDKADELAEELREKTDVDRLKVLELELLIGEAIALVQEMINDK
B9: LC3A_free_8_2489 (protein)
chain: KSQELANLASDLLDELEEEVEKKAKELGASELDILDLSLLIGSTIAEAYSLSDESPEKIIEAVREGLEELIERAKEISEELAKKVKELSEKILKELEEKA
B10: LC3A_132_300 (protein)
chain: NKELAEKLKEEIKKLVEEAKENIDNEEKVRELFKKIEKLLEEAEKKLTPEEQAEVFEYAAELLDELSKVFLEKGKEELAEEADGLAIEAESLSLRAKEKI
B11: LC3A_free_39_2185 (protein)
chain: SAEEREKYVEEALALAAEEGEETEELAKRLLEVLGDDVEAVKKFLELLKEMKEEGVDLKEALEEALALAEQLKAEGKSQEEIAKAVLEQLQDHINLIPID
B12: LC3A_free_46_2355 (protein)
chain: VKAEILIDLLHEDEEVLKKAVEEIKKAAKEIAKKYGLKVEIKEEISKLPDGSYYAEIEITLTGETKEKLEKAVTELINKIDEIAKKYNVAAIISYEIIEE
B13: LC3A_3_1591 (protein)
chain: MEELVEEALARLEAAGLSPEVLAAARELLEALAEKGYEEAIKTTTELLLENRDLPDEVLVDTLNDILHIVETEDLDEEEIIERIKEEFRVARLEGEIEEL
B14: LC3A_3_1816 (protein)
chain: LEERVEAALERLRAAGASPETLEAFRAAAEALRERGYEEALKTLIELTEELLDLPSELLLAFFQDVLALIETSDLNEEEIKEKIKEIASTHRNEAEIEEL
B15: LC3A_3_1437 (protein)
chain: MEELLREAEEVLEEIGASEEAREAVLELVRLALEAGEEEGVKRLIEVLKEAKNVPSEEVLEAAERALRRVREEGVPIGEALEELIEELRVLALEQEIEEL
B16: LC3A_28_1325 (protein)
chain: SHIEEELERAEKEAEEALAKGEPALLEITVKPTTTVEEAEELMERLEEIIAKYAPKQKISVIINVESGVKQEVIDVIAEKAEEIEEKFPNVTVIIALDED
B17: LC3A_28_1049 (protein)
chain: SPIEEELKRALEEAKEAVARGEEALIRLTIGKDATEEDVEKVLETMEEIAELTKSLPRVDIVVDVDSENKEEVTKKIAEKGEELEKKYPNVTVYIALSEE
B18: LC3A_3_1902 (protein)
chain: MEELKEKLLEALKEAGASEETIEDAKEALDLIFSRGLEEVAKLFVEAVLELLKISVEKAEEFIREFLEAVKSFKGSNEEFEKFLKEEIKTLYNEQLIEEL
B19: LC3A_3_1434 (protein)
chain: SAALLARAEAVLAAAGFSPEARAAVLELVRRALAAGEEAGVERLIEVLAEAKDVPSEEVLAAARAALRRYEEEGVPMAEVVADFIAELRVLRLEEEIEEL
B20: LC3A_62_2054 (protein)
chain: MEKGTIYVDMLFKTKETMEEAKERIKEIVEEMKKEGVNVELEIEEEEEDGEYFLHVTITTDSREATLEAEDRVLDLIDELIAKHPEDVLAAIVSREIEEL
B21: LC3A_free_8_2528 (protein)
chain: SVQELVDTLTAQLDELEKALVEKAKELGLSELDINELELEVGEAIIEIIELEDKSKEEILKKLKEELKRIIELAKEISEEVAKLAEEKSKEIIEEAEKLI
B22: LC3A_61_2040 (protein)
chain: EEVVLPTEELTERLRRVLERLRELAEKGSEELKKLLEEAEEELRKLAEEELAVEEGLELAEKYLEEIEKSESEEERLKLAEELLDELKDLLLLAPIDDDE
B23: LC3A_28_1324 (protein)
chain: SHIEEELAKARAEAEEQAAKGEEITLTVEISGETTLEEAEEMMEALEEIAEKYAPKRKVNIIIDLDGGVAQEVIDLIAEKAEEIEKKYPNVTVIIALDEE
B24: LC3A_3_1787 (protein)
chain: MEERIEALLERLREAGHSEETIEAARRVLELLKEKGYEEALETFIEGLEELIDLPDEILLDMLLEALRLLEENDWSEEEVKERIKELMRLARSEGEIIEL
B25: LC3A_free_46_2397 (protein)
chain: YVAKIDVDVLGLTEEQAEEFIKRVKELAEKISKEYNVEIEIEVEVEKNEDGTYYVRIRITIKGENKETVQKATTDLLDGIEEIAEELGASVIFSVEFEEE
B26: LC3A_28_775 (protein)
chain: MDVAANVAAAIAEAKEAKAKGEEAVITITVPAGATQADIDTVIAGLKEIAEITKDMKSISVVIDVDGGVAQEHLDKLMKAAEEIEKKYPNVTVIIALDEE
B27: LC3A_28_817 (protein)
chain: SAAEKTIEKVKEQAEKAKNSKEPVLIEVDVPGTITVEEAKRLMEEIEKLAKELSKKHKVYIVINFTEPVSQEVLDLISKRAEEIEEKYPNVSVIIALPEE
B28: LC3A_28_914 (protein)
chain: SALDESTERALAEIEEAAARGEPAVVTLEVTEEDPARAAAETRRALARLAEAAKKHPGVTIIVDAPANVADEVTAVADEVQAELLKANPSNHIIVALEEP
B29: LC3A_28_1181 (protein)
chain: SELEESIKKALEEAEAAAKAGEATVITIKVPGDVTEEETEKVIKALEEIAELLKDIKGSAIVIEVDSGVSEEHLNKIIEKAEEIEKKYPNVTVIIALDEE

These binders were tested against MAP1LC3A, Q9H492 (assay: median log2 fold change of GCK-ALFA target abundance (FLAG IP / Myc IP barcode read proportion) (log2 ratio); each designed protein is fused to an ALFA-tag nanobody in HEK293 cells to bring the named protein to FLAG-tagged glucokinase (GCK); Myc marks an untargeted standard; higher = target protein stabilised (more abundant)). Details: target protein: 3xFLAG-MCP-GCK-ALFA reporter; HEK293 landing pad (RPLP).
Outline: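 HEK293 landing-pad cells received a recombined binder library fused to the ALFA nanobody and were induced with 2 μg mL^−1 doxycycline, then transfected with a plasmid encoding a FLAG-tagged target and a Myc-tagged standard. Lysates were collected after 48 h for anti-FLAG and anti-Myc immunoprecipitation, and the circular RNA barcodes were reverse transcribed, amplified and sequenced. Target abundance for each binder is the median log2 ratio of FLAG to Myc barcode read proportions. Barcodes had to reach a proportion of at least 10^−7 in both replicates, each binder needed at least 3 barcodes per replicate, a pseudocount of 10^−6 was applied, and the two replicates were pooled.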

Compared with B1, B2 is lower in “median log2 fold change” value: 0.172 for the first, -0.304 for the second.

First: B3
Second: B4
The “median log2 fold change” value of the first is lower: -0.0593 for the first, 0.315 for the second.

First: B5
Second: B6
The “median log2 fold change” value of the first is higher: 0.173 for the first, -0.346 for the second.

B7 and B8 are within 0.2 log units of each other in “median log2 fold change” value: 0.187 for the first, 0.149 for the second.

Going from B9 to B10, the “median log2 fold change” value rises from 0.0352 to 0.318.

Going from B11 to B12, the “median log2 fold change” value falls from 0.241 to -0.335.

B13 and B14 are within 0.2 log units of each other in “median log2 fold change” value: 0.202 for the first, 0.291 for the second.

B15 and B16 are within 0.2 log units of each other in “median log2 fold change” value: 0.178 for the first, 0.0261 for the second.

Going from B17 to B18, the “median log2 fold change” value rises from 0.00401 to 0.236.

Compared with B19, B20 is lower in “median log2 fold change” value: 0.143 for the first, -0.359 for the second.

B21 and B22 are within 0.2 log units of each other in “median log2 fold change” value: -0.0825 for the first, 0.055 for the second.

Compared with B23, B24 is lower in “median log2 fold change” value: 0.05 for the first, -0.221 for the second.

B25 and B26 are within 0.2 log units of each other in “median log2 fold change” value: -0.0331 for the first, -0.154 for the second.

First: B27
Second: B28
The “median log2 fold change” value of the first is lower: -0.352 for the first, -0.0691 for the second.

With B29 the “median log2 fold change” value was -0.445.
